In the antibiotic and cytotoxicity screens of Wong et al. (2023) one finds cytotoxicity call and growth inhibition call data, which are given here for 29 compounds.

The other results are listed elsewhere or left out.

One assay has as its system HSkMC. In words: cytotoxicity call (relative viability < 0.9). The conditions noted are these: 10 µM.
A further assay deals with HepG2. Description: cytotoxicity call (relative viability < 0.9). The conditions noted are these: 10 µM.
The test system of the next assay is S. aureus RN4220. Description: growth inhibition call (relative growth <= 0.2). Conditions: 50 µM.

As to `COc1cccc2c1cc([N+](=O)[O-])c1c(C(=O)O)cc3c(c12)OCO3`, the cytotoxicity call in the assay on HSkMC and with HepG2 was “inactive” each time. Also, in the assay on S. aureus RN4220, the growth inhibition call was “inactive”.
For the compound `CN[C@H]1C[C@@H](N)[C@H](O)[C@@H](O[C@@H]2O[C@H](CO)[C@H](O)[C@@H]3O[C@@]4(O[C@H]23)O[C@H]([C@@H](N)CO)[C@H](O)[C@H](O)[C@H]4O)[C@@H]1O`, in the assay on HSkMC, the cytotoxicity call was “active”. Further, the cytotoxicity call with HepG2 is “inactive”. The growth inhibition call in the assay on S. aureus RN4220 was “inactive”.
Take `CN[C@@H](C)Cc1cnccn1`: the cytotoxicity call in the assay with HSkMC and with HepG2 was “inactive” each time. Besides, the growth inhibition call with S. aureus RN4220 was “inactive”.
On to `C[C@H]1C[C@H]2CNCC[C@@H]2O1`, for which the cytotoxicity call with HSkMC and in the assay on HepG2 was “inactive” throughout. In the assay on S. aureus RN4220, the growth inhibition call is “inactive”.
For the compound `CCN1C[C@H]2C[C@H](C(=O)NCC3CC3)[C@@H](C1)O2`, the cytotoxicity call with HSkMC and with HepG2 was “inactive” each time. The growth inhibition call with S. aureus RN4220 is “inactive”.
In the case of `Cc1ccc(OC(=O)N(C)C[C@H]2OCc3ccccc3-c3c(n(C)c4ccccc34)C(=O)N([C@H](C)CO)C[C@H]2C)cc1`, the cytotoxicity call in the assay with HSkMC and in the assay with HepG2 was “inactive” throughout. The growth inhibition call with S. aureus RN4220 was “inactive”.
As for `O=[N+]([O-])c1ccc([As](=O)(O)O)cc1`, the cytotoxicity call in the assay on HSkMC was “inactive”. Besides, the cytotoxicity call in the assay with HepG2 was “active”. Further, the growth inhibition call in the assay with S. aureus RN4220 was “inactive”.
On to `O=c1cccc2n1C[C@@H]1C[C@H]2CN(C[C@H](O)/C=N/n2cnnc2)C1`, for which the cytotoxicity call in the assay on HSkMC and in the assay on HepG2 was “inactive” in each case. Moreover, the growth inhibition call in the assay on S. aureus RN4220 was “inactive”.
On to `CC(C)=CC1C(C(=O)OCc2cccc(Oc3ccccc3)c2)C1(C)C` (configuration not stated), for which the cytotoxicity call in the assay on HSkMC and in the assay with HepG2 was “inactive” throughout. Further, the growth inhibition call in the assay with S. aureus RN4220 was “inactive”.
On to `Cc1cc(N(C)C)ccc1C[C@@H](C)N`, for which the cytotoxicity call in the assay on HSkMC and in the assay with HepG2 was “inactive” throughout. Also, the growth inhibition call in the assay with S. aureus RN4220 was “inactive”.
As to `Cc1ccc(C=C2C(=O)NC(=O)NC2=O)cc1`, the cytotoxicity call in the assay on HSkMC and in the assay on HepG2 was “inactive” each time. The growth inhibition call with S. aureus RN4220 is “inactive”.
`O=C(O)CC[N+](=O)[O-]`: the cytotoxicity call with HSkMC and in the assay on HepG2 was “inactive” in each case. In addition, in the assay with S. aureus RN4220, the growth inhibition call is “inactive”.
As to `NCCCNCCSP(=O)(O)O`, the cytotoxicity call in the assay with HSkMC and in the assay on HepG2 was “inactive” in each case. For the same compound, in the assay with S. aureus RN4220, the growth inhibition call was “inactive”.
Regarding `Cc1cc(CCN)on1`, the cytotoxicity call with HSkMC and with HepG2 was “inactive” in each case. Also, the growth inhibition call in the assay on S. aureus RN4220 was “inactive”.
With `Cc1nc([N+](=O)[O-])c(N2CCNCC2)[nH]1`, the cytotoxicity call in the assay on HSkMC and in the assay with HepG2 was “inactive” each time. Moreover, in the assay with S. aureus RN4220, the growth inhibition call was “inactive”.
Consider `C[C@@H]1CC[C@@]2(OC1)O[C@H]1[C@@H](O)[C@H]3[C@H]4CC[C@H]5C[C@H](O[C@@H]6O[C@H](CO)[C@H](O[C@@H]7O[C@H](CO)[C@@H](O)[C@H](O[C@@H]8OC[C@@H](O)[C@H](O)[C@H]8O)[C@H]7O[C@@H]7O[C@H](CO)[C@H](O)[C@H](O[C@@H]8O[C@H](CO)[C@@H](O)[C@H](O)[C@H]8O)[C@H]7O)[C@H](O)[C@H]6O)[C@H](O)C[C@]5(C)[C@@H]4CC[C@]3(C)[C@H]1[C@@H]2C`, for which the cytotoxicity call in the assay with HSkMC and with HepG2 was “inactive” each time. The growth inhibition call in the assay with S. aureus RN4220 was “inactive”.
Regarding `CCC(=O)OC1CCC2C3CCC4=CC(=O)CCC4(C)C3CCC12C` (configuration not stated), the cytotoxicity call in the assay with HSkMC and in the assay on HepG2 was “inactive” throughout. The growth inhibition call with S. aureus RN4220 is “inactive”.
`CCN(Cc1ccc(Cl)nc1)C(=C[N+](=O)[O-])NC`: the cytotoxicity call in the assay on HSkMC and with HepG2 was “inactive” throughout. In addition, the growth inhibition call in the assay on S. aureus RN4220 was “inactive”.
Consider `Cn1cc([C@@]23C[C@]2(C)COC3=O)cn1`, for which the cytotoxicity call with HSkMC and in the assay on HepG2 was “inactive” each time. Further, in the assay with S. aureus RN4220, the growth inhibition call is “inactive”.
`COc1cc2c(cc1OC)C1C(=O)c3ccc4oc(C(C)C)cc4c3OC1CO2` (configuration not stated): the cytotoxicity call in the assay on HSkMC was “inactive”. The cytotoxicity call with HepG2 is “active”. In addition, the growth inhibition call in the assay with S. aureus RN4220 was “inactive”.
For `COP(=O)(OC)OC(Br)C(Cl)(Cl)Br` (configuration not stated), the cytotoxicity call in the assay on HSkMC and with HepG2 was “inactive” each time. The growth inhibition call in the assay with S. aureus RN4220 was “inactive”.
As to `CNC(=O)Oc1ccc2c(c1)[C@]1(C)CCN(C)[C@@H]1N2C.CNC(=O)Oc1ccc2c(c1)[C@]1(C)CCN(C)[C@@H]1N2C.O=S(=O)(O)O`, the cytotoxicity call with HSkMC and in the assay on HepG2 was “inactive” throughout. Further, the growth inhibition call with S. aureus RN4220 is “inactive”.
In the case of `COc1ccc(OC)c(CN)c1`, the cytotoxicity call in the assay with HSkMC and in the assay on HepG2 was “inactive” in each case. Also, the growth inhibition call with S. aureus RN4220 is “inactive”.
Turning to `C[C@]12CC[C@H](Cl)C[C@@H]1CC[C@@H]1[C@@H]2CC[C@]2(C)C(=O)CC[C@@H]12`, the cytotoxicity call in the assay on HSkMC and in the assay on HepG2 was “inactive” in each case. Further, in the assay with S. aureus RN4220, the growth inhibition call was “inactive”.
Consider `CCCC(=O)c1c(O)[nH]c(=O)[nH]c1=O`, for which the cytotoxicity call with HSkMC and in the assay on HepG2 was “inactive” each time. In addition, the growth inhibition call with S. aureus RN4220 is “inactive”.
For the compound `COC(=O)[C@@H]1[C@@H](CO)[C@@H]2Cn3c(cccc3=O)[C@H]1N2C(=O)C1CC1`, the cytotoxicity call with HSkMC and with HepG2 was “inactive” throughout. The growth inhibition call in the assay with S. aureus RN4220 is “inactive”.
For the compound `CCOCC(=O)N1CC[C@H]2CNC[C@H]21`, the cytotoxicity call in the assay with HSkMC and with HepG2 was “inactive” throughout. In the assay on S. aureus RN4220, the growth inhibition call is “inactive”.
Take `O=C(NC(O)C(Cl)(Cl)Cl)NC(O)C(Cl)(Cl)Cl` (configuration not stated): the cytotoxicity call in the assay on HSkMC (human skeletal muscle cells) and in the assay on HepG2 was “inactive” throughout. In addition, in the assay on S. aureus RN4220, the growth inhibition call was “inactive”.
For the compound `CN1CC2(CNC2)OCCS1(=O)=O`, the cytotoxicity call in the assay with HSkMC and in the assay on HepG2 was “inactive” in each case. In addition, in the assay with S. aureus RN4220, the growth inhibition call is “inactive”.
